Measured values reported in article PMC4336329 (PLoS ONE, 2015).
The campaign covered roughly 310,000 compounds. About 2,200 (0.71%) showed an effect of 50% or more. The effect is printed as a negative number. This is one part of the list.

Target: human ether-à-go-go-related gene (hERG) potassium channel (human, UniProt Q12809)
Assay: primary screen, population patch clamp on CHO cells stably expressing hERG

human ether-à-go-go-related gene (hERG) potassium channel, sequence (Q12809 whole entry, looked up): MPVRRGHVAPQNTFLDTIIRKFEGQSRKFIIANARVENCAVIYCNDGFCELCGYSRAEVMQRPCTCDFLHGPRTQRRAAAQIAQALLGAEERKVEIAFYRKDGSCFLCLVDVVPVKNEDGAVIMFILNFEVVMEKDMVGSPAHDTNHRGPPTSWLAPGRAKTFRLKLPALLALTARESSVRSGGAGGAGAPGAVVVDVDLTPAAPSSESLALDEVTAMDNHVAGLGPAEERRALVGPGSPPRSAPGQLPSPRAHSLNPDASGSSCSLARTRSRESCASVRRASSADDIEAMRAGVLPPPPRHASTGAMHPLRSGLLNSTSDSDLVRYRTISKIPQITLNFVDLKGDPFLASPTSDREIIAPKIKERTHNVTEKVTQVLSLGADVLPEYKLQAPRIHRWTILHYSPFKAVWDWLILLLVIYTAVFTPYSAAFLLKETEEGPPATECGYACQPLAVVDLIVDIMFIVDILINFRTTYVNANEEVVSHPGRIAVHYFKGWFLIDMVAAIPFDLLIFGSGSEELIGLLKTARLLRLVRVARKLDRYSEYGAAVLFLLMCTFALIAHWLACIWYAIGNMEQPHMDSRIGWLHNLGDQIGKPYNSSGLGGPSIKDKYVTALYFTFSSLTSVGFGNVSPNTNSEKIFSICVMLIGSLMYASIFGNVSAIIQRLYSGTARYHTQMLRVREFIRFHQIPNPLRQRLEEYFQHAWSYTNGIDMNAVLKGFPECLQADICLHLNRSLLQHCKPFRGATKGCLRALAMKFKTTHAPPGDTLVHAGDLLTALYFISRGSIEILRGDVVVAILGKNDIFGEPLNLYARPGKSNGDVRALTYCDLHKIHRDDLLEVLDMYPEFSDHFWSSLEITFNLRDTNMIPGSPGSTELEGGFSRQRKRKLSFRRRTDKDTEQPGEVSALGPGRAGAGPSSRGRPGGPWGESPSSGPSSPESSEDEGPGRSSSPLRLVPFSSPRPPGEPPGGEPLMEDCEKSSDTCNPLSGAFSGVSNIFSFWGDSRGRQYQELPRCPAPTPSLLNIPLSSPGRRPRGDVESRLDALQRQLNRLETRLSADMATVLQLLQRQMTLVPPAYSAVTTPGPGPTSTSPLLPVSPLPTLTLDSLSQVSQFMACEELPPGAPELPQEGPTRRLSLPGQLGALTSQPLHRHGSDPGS

Compound | hERG current change (%, negative = inhibition) at 1uM [%]
Cc1cc2ccccc2c(=O)n1CC(=O)NCC1COc2ccccc2O1 (stereo not shown) | 7.04
COc1ccccc1NC(=O)Cc1ccc(-c2ccccc2)cc1 | 18.9
O=C(O)C1C2CCC(C2)C1C(=O)NCCc1ccccc1 (stereo not shown) | 11
CC(=O)c1ccc(OCC(=O)N2CCCC(Nc3ccc(C)c(C)c3)C2)cc1 (stereo not shown) | 13.2
O=C(Nc1ccccc1)N1CCC(C(=O)N2CCN(Cc3ccccc3)CC2)CC1 | -5.59
Cc1ccc(-n2c(=O)cc(NCc3cccnc3)[nH]c2=O)cc1 | -6.03
C=CCC1c2cccc(C(=O)O)c2C(=O)N1c1ccc(Cl)cc1 (stereo not shown) | -0.498
COc1cc(OC)cc(C(=O)NCC(=O)OCC(=O)/C=C2/N(C)c3ccccc3C2(C)C)c1 | 15.1
CN(C)C(=C(C#N)C#N)N1CCN(c2ccc(Cl)c(Cl)c2)CC1 | -37.6
Cn1ccnc1-c1ccc(-c2nccn2C)cc1 | 10.9
C=CCN(CC(=O)NC1CCS(=O)(=O)C1)S(=O)(=O)c1ccccc1C(F)(F)F (stereo not shown) | 15.3
Cc1ccccc1-n1c(=O)n(Cc2ccccc2)c(=O)c2[nH]cnc21 | 7.2
c1ccc2c(c1)Sc1ccccc1N2CC1CN2CCC1CC2 (stereo not shown) | 0.96
CCc1nnc(NC(=O)C2CCN(S(=O)(=O)Cc3ccccc3)CC2)s1 | 8.02
CCn1c(SCc2c(F)cccc2Cl)nnc1-c1ccco1 | -0.296
O=C(Nc1ccncc1)c1cccs1 | 9.52
COc1ccc(CCC(=O)OCC(=O)Nc2ccc(OC)c(OC)c2)cc1OC | 18.5
O=C(NCc1cccnc1)c1ccc(S(=O)(=O)N2CCCCCC2)cc1 | 10.6
CC(C)N1C(=O)CCC1C(=O)N1CCN(c2ccccn2)CC1 (stereo not shown) | 8.69
CCCc1nnc(SCC(=O)N2C(C)CCCC2C)n1CC1CCCO1 (stereo not shown) | 7.13
CN(C)S(=O)(=O)c1ccc(SCC(=O)N2CC(=O)Nc3ccccc32)nc1 | 8.71
O=C1COc2ccc(S(=O)(=O)Nc3ccc(OC(F)(F)F)cc3)cc2N1 | 11.7

Compound | hERG current change (%, negative = inhibition) at 1uM [%]
COc1cccc(NC(=O)CSc2nc3ccccc3cc2Cc2ccccc2)c1 | 3.83
Cc1ccccc1N1CCN(C2CCCN(C(=O)c3csc(C(C)C)n3)C2)CC1 (stereo not shown) | -6.14
CNC(=O)COC(=O)/C=C/c1cn(-c2ccccc2)nc1-c1ccc(C)o1 | 6.58
Cc1nc2ccc(NC(=O)c3oc4ccc(F)cc4c3C)cc2s1 | 12.4
CCOc1ccc(N(CC(=O)NN=C2CCN(C)CC2)S(C)(=O)=O)cc1 | 7.5
COc1ccc(CNC(=O)Cn2cc([N+](=O)[O-])cn2)cc1 | 17.8
CC(=O)Nc1ccc(S(=O)(=O)NCC2CCC(C(=O)N3CCCCC3)CC2)cc1 (stereo not shown) | 13.7
CCc1ccc(NS(=O)(=O)c2c(C)noc2C)cc1 | 3.96
COC(=O)C1=C(c2ccc(OC(F)(F)F)cc2)C[C@@H]2CC[C@H]1N2C(=O)N1CCCC1 | 5.49
O=[N+]([O-])c1c(Nc2ccccn2)cc(Cl)c2nonc12 | 13.4
C#CCOc1ccc(C2C3=C(CCCC3=O)N(CC(=O)O)C3=C2C(=O)CCC3)cc1Br | 17.8
CCC1c2ccc(C)n2CCN1C(=O)Nc1cc(Cl)ccc1OC (stereo not shown) | 3.07
CC(C)(O)c1cc(=O)sc2nc3ccccc3n12 | -3.9
CCc1ccccc1NC(=O)CN(C)C(=O)CSc1nnc(Nc2cccc(C)c2)s1 | 1.69
CCOC(=O)c1c(C)n(C)c2c(C)cc(O)c(OC(C)=O)c12 | 8.89
O=C(CN1CCOCC1)NC1CC2CCC1C2 (stereo not shown) | 5.06
COc1ccccc1-n1c(Cc2ccccc2)nc2ccccc2c1=O | 6.65
CC1(C)Cc2c(sc(NC(=O)c3ccco3)c2C(=O)O)CO1 | 4.83
CS(=O)(=O)c1ccc(C(=O)NC2CCOC2=O)cc1 (stereo not shown) | -3.22
CC(C)(C)c1cc(C(=O)Nc2cccnc2)cc(C(=O)Nc2cccnc2)c1 | 4.84
CC(=O)NC(Cc1ccc(N(CCCl)CCCl)cc1)C(=O)NC(CC(C)C)C(=O)O (stereo not shown) | 2.39
NC(N)=N/N=C/c1ccc2cccc(OCc3ccccc3)c2n1 | -1.5

Compound | hERG current change (%, negative = inhibition) at 1uM [%]
CC(NC(=O)c1ccc(Cl)cc1)c1nnc(SCC(=O)NC2=NCCS2)n1C (stereo not shown) | 17.6
Cc1ccc(Nc2nc(N)nc(CN3CCN(Cc4ccc5c(c4)OCO5)CC3)n2)c(C)c1 | -70.5
COC(=O)C1C(=O)CC(C)(O)C(C(=O)OC)C1c1ccc2c(c1)OCO2 (stereo not shown) | 15.5
Cc1ccc(NC(=O)CN(C)C(=O)COC(=O)C(C)(C)Oc2ccc(Cl)cc2)cc1 | 1.48
CCC1(COC(NC(=O)c2cccnc2)(C(F)(F)F)C(F)(F)F)COC1 | 11.3
COc1cccc(NC(=O)c2cccc(N3C(=O)C4C5C=CC(C5)C4C3=O)c2)c1 (stereo not shown) | -11.2
CCOC(=O)CSC1=C(C#N)C(c2ccco2)C(C(=O)Nc2cccc(C(F)(F)F)c2)=C(C)N1 (stereo not shown) | 0.998
O=C(Nc1ccc(S(=O)(=O)Nc2ccnn2-c2ccccc2)cc1)C(F)(F)F | 12.3
O=C(Nc1cccs1)Nc1ccc(Br)cc1F | 7.79
COCCN(C(=O)CSCc1ccc(C)cc1)c1c(N)n(CC(C)C)c(=O)[nH]c1=O | 12.6
O=C(c1ccco1)N1CCN(C(=O)c2cc(-c3ccccc3F)no2)CC1 | 1.43
CCOC(=O)c1nnn(-c2nonc2-n2cccc2)c1-c1cccc([N+](=O)[O-])c1 | 10.1
CN(C)CCCN(C(=O)c1ccc(C(=O)c2ccccc2)cc1)c1nc2ccc(F)cc2s1 | -6.93
CCCCC(=O)NCc1ccc2c(c1)cc(C)n2C | 17.8
Cc1c(NC(=O)C(C)OC(=O)c2sc3ccccc3c2Cl)c(=O)n(-c2ccccc2)n1C (stereo not shown) | 11.8
Cn1c(=O)c2[nH]c(N3CCCCC3)nc2n(C)c1=O | 12
C/C(=N\NC(=O)Cc1c(C)[nH][nH]c1=O)c1ccc2ccccc2c1 | 12.5
COc1ccc(CNC(=O)Cc2cn(C)c3ccccc23)c(OC)c1 | 7.04
O=c1[nH]c2ccccc2cc1-c1noc(-c2cccnc2)n1 | 7.64
COc1ccc(NC(=O)c2ccccc2NC(=O)NC2CCCCC2)cc1 | 7.18
CN1C[C@@H]2C[C@@H](c3cccn3-c3nccs3)N3CCC[C@@]23C1=O | 1.26
Cc1ccc(C(=O)Nc2ccccc2N2CCCC2)s1 | 19.9

Compound | hERG current change (%, negative = inhibition) at 1uM [%]
CCCN(CC(=O)Nc1ccccc1OC)C(=O)CSc1nc(C)cc(C)n1 | 11.9
CCC(C)(C)n1nnnc1CN(Cc1cc2cc(OC)c(OC)cc2[nH]c1=O)C1CCCC1 | 9.59
COc1ccc(N2CCN(C(CNS(=O)(=O)c3cccs3)c3cccnc3)CC2)cc1 (stereo not shown) | -45.2
CC1CCCC(NC(=O)c2ccc3c(c2)OCCO3)C1C (stereo not shown) | 11.9
Cc1cc(N2CCN(C)CC2)nc2ccccc12 | 8.97
COc1ccccc1NC(=O)c1ccc2c(c1)CCN2S(C)(=O)=O | 11.8
CC(C)c1nc(SCC(=O)Nc2ccc(C(=O)O)cc2)c2c3c(sc2n1)CCCC3 | 6.47
O=C(Cn1c(-c2ccccc2)noc1=O)Nc1ccc(N2CCCCCC2)cc1 | 7.16
CCCCN(C)CCNC(=O)CCn1nc(-c2ccc(C)cc2)ccc1=O | -21.4
COc1ccccc1NS(=O)(=O)c1cc(C(=O)NCc2cccnc2)ccc1C | -12.2
CC(Sc1n[nH]c(N)n1)C(=O)C12CC3CC(CC(C3)C1)C2 (stereo not shown) | -5.1
CCOC(=O)N1CCN(C(=O)CCc2ccc(S(=O)(=O)NC(C)C)cc2)CC1 | 10.5
COc1ccccc1CC1CC(=O)N(c2cccc(Cl)c2C)C1=O (stereo not shown) | 12
O=C(Nc1ccc2c(c1)OCCO2)C1CC(c2ccccc2Cl)=NO1 (stereo not shown) | 7.32
COc1ccc(NC(=O)CSc2ccc(F)cc2)cc1S(=O)(=O)N1CCCCC1 | 13.1
CC(=O)c1ccc(S(=O)(=O)NCCC(=O)NC(C)c2ccncc2)cc1 (stereo not shown) | 11.8
O=C(COc1ccc(/C=N/NC(=O)c2cc3ccccc3o2)cc1Cl)Nc1ccccc1 | 11.1
O=C(Cn1c(=O)oc2ccccc21)NC(=O)NCc1ccccc1 | 7.69
Cc1ccccc1OCC(=O)NNC=O | 14.6
CN(CC(=O)Nc1ccc2c(c1)OCO2)S(=O)(=O)c1ccc2c(c1)CCC(=O)N2 | 7.8
CCOc1cc2[nH]c(=S)n(CC3CCCN3CC)c(=O)c2cc1OCC (stereo not shown) | -2
COc1ccc(Cl)cc1NC(=O)NNC(=O)c1ccccn1 | 15.2
